The other results are listed elsewhere or left out.
T1: UNK ZnF1-3 (human, UniProt Q9C0B0 31-174)
T1 sequence: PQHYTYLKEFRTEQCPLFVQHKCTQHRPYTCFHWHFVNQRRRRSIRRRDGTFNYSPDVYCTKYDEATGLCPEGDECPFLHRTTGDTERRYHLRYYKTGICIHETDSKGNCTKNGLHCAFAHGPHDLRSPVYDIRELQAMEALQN

B1: 118513148_118513779_6995_CDS_ENSG00000172869_ENST00000311085|human|control|control (ssRNA)
RNA: GGGAGUUCUACAGUCCGACGAUCUGCUGUGAGAAUCUCACAGAGCAAGACUGUAAGCCCUGACUGGGCUUCCUCGCCAGAAGAAUUCAAAAGUCGAAUUAGACAAGUUAUUCCUGGCCAUUGAGCUGGUGACGUAUUGGGAGUCAACAGAGGAUUGAGCAUCA
B2: chr1:156945260:156945261:-_ENSMUSG00000056708_ENSMUST00000055322|mus_hu|FALSE|FALSE (ssRNA)
RNA: GGGAGUUCUACAGUCCGACGAUCUCCCCGGAGAACGAAUGGGGAACUCCCCGGCCCAAACCUUUUAGCCGCUUCCUUCUCCACGCAGCCGGCAGAGGAAAGUCCCUGUCUGCCCCCAAUCUCUUAAACCCUGGGGAAGGAGUGCAACAGAGGAUUGAGCAUCA
B3: chrX:98838459:98838460:+_ENSMUSG00000034160_ENSMUST00000044475|mus_mus|motif|central (ssRNA)
RNA: GGGAGUUCUACAGUCCGACGAUCUCCCAAAUUCGAAUAGGCUUCUGCUAGAAGGGGAUUCUGUUUAAUUGCCAAGGUGCGGAAAUGAGCAGAUCUGUCCAGCCUUCGACACUGGAAGUGUAUAGAUGAAAGUAAUAAAAGAACCAACAGAGGAUUGAGCAUCA
B4: chr17:65740002:65740003:+_ENSG00000130935_ENST00000581375|hu_hu|hu_hu_hu_mus_False|78_108 (ssRNA)
RNA: GGGAGUUCUACAGUCCGACGAUCAACCCGUUCUUGCUCCCUGGACGAACAGGAAGACAUAAAAGAGAAAAAAUAUAUAUCCAUCAAGUUAGGUGUGGUGGCCACACCUUUACUCCCAGCACUUUGGGAGGUGGAUCUCUGAGUCAACAGAGGAUUGAGCAUCA
B5: chr11:29608385:29608386:+_ENSMUSG00000020458_ENSMUST00000102843|mus_mus|motif|central (ssRNA)
RNA: GGGAGUUCUACAGUCCGACGAUCGUCAGUGUACUCCUUAGGAGAAUCAUCUUUAGCACUGACAAAUGUGGGAAACUCAUCGGUUAUCUCAAUGGGAGAUGAAUCGGAAAAUGUUUCACUUUCUUUCAUUUUGUCUUCCUUAGACAACAGAGGAUUGAGCAUCA
B6: chr4:175158536:175158537:-_ENSG00000164117_ENST00000503293|hu_hu|motif|central (ssRNA)
RNA: GGGAGUUCUACAGUCCGACGAUCGCUUGAUUGUAUACUCAGGCUACAAUGACCAGCACUGAUGUAACCCCCAUAUCUGCGGAGUCCUUGGGUAGCUUUAGUCUGAAGUAAAAACUGAAGUCCUAGCAAUUGUGCUUUUUAUGCCAACAGAGGAUUGAGCAUCA
B7: chr16:68260615:68260616:+_ENSG00000072736_ENST00000346183|hu_hu|motif|central (ssRNA)
RNA: GGGAGUUCUACAGUCCGACGAUCGAAACAAGAGAGCCUGCUGCAUUCACACUCAAAGCACCCAUCAUAUAAAAGUAUCCGGGUUAAAUAUAAAAAGCAAAGUUCAUUUCCCCAAAGCUCAAACAGCCUAUGCUGCUCCUGUUCCAACAGAGGAUUGAGCAUCA
B8: chr10:114798999:114799000:-_ENSMUSG00000069520_ENSMUST00000092170|mus_hu|FALSE|FALSE (ssRNA)
RNA: GGGAGUUCUACAGUCCGACGAUCUCAUCUUUAUAUAUCUUUUGCAUAUAUUGUCGUUAAGAUCUGUCAUGGAAAAUAAGGAUAUGAGCUCCUGCGGGAAAGAAUAUUUAGCGUUUCGGAGAGAAAGUCAUUUACGAUGUGAGCCAACAGAGGAUUGAGCAUCA
B9: chr1:166823625:166823626:+_ENSG00000143157_ENST00000367875|hu_hu|FALSE|FALSE (ssRNA)
RNA: GGGAGUUCUACAGUCCGACGAUCUAUUGUUGGGGUCAGUUCCUAUCUACUAGGGAGUACAACUAUAUCUCAAUAUGUGCUAUAGUAAUUCUAGGGUAACAGCCAUUCUGCAAAAUAGUUGUACUGGGGCUCUGUUAGGCAUAGCAACAGAGGAUUGAGCAUCA
B10: chr9:113828744:113828745:+_ENSMUSG00000033392_ENSMUST00000111838|mus_mus|motif|central (ssRNA)
RNA: GGGAGUUCUACAGUCCGACGAUCAAGUAAUGUUAUGUACAGUUUUAUUGCCAGUAUAUGCACAACAGUAAGCAUAGAGCGGUAAAUACACAAUGUCAUUAACAGUAGAAAACAAAACUGUUACAGUAGGGAGAGGGUGUGGAGCAACAGAGGAUUGAGCAUCA
B11: chr9:122046571:122046572:+_ENSMUSG00000038145_ENSMUST00000120173|mus_hu|motif|central (ssRNA)
RNA: GGGAGUUCUACAGUCCGACGAUCUUGAAAUUUGUUGCUGAACCCAAAGUCUGUCAACUUUACAAGACCUUGUUUUUCAAAGAAGACGGCAUUCUCUGGUUUUAAGUCUCUGUGAACCACAUGGAGUUUAUGGCAAUAAGAUAUCAACAGAGGAUUGAGCAUCA
B12: chr1:60041781:60041782:+_ENSMUSG00000041040_ENSMUST00000036540|mus_hu|mus_mus_mus_hu_False|8_58 (ssRNA)
RNA: GGGAGUUCUACAGUCCGACGAUCAAGUUUACAAUAGUAAAGUAAAUGCAGUAGUGGCAAAUUUUCUUUUAUUUUCCUUCCUAAAAGAAAAUCUUUAUAACCCAGUCCUAGUCUUGGACAUAGUGAAUCUCCAUGGGUCUGACUCAACAGAGGAUUGAGCAUCA
B13: chr6:114281168:114281169:-_ENSG00000196591_ENST00000368632|hu_hu|motif|central (ssRNA)
RNA: GGGAGUUCUACAGUCCGACGAUCUUCCAUUUUUCUGUAUAAGCCAUAAUUUAACAGCAAGUUAUGGGUCAUGCGGAUUCGGUGAGGCUUCAUGGGAUGACCCUGUCCAUAAUAAUAAUUUCCAAUAUCACAGAUUCACUAGAACAACAGAGGAUUGAGCAUCA
B14: 180451576_180451696_634_3pUTR_ENSMUSG00000027573_ENSMUST00000029090|mouse|control|control (ssRNA)
RNA: GGGAGUUCUACAGUCCGACGAUCGCAAGGCCAGUGUGCGCUCCAUCUCUGUGAGGCAUUCUCGGCUUUCCUCACCCUGCUCUGCCAGUUGUGUCUGGGCAAACUCCAAUGCUGCUUCUGUCUCACGCUGACGGAUAAGCUCAACAACAGAGGAUUGAGCAUCA

Target: T1, UNK ZnF1-3
Experiment: nsRBNS (natural sequence RNA bind-n-seq); RBNS binding buffer (assumed for nsRBNS): 25 mM Tris pH 7.5, 150 mM KCl, 3 mM MgCl2, 0.01% Triton X-100, 500 ug/ml BSA, 20 U/ml SUPERase-In, 4 C; UNK is unkempt and MSI1 is Musashi-1; names of the RNAs are library labels; protein concentration not given here; high values mean tight binding

Row | Binder | binding signal
1 | B1 | 0.737 enrichment R
2 | B2 | 1.08 enrichment R
3 | B3 | 1.23 enrichment R
4 | B4 | 1.03 enrichment R
5 | B5 | 0.265 enrichment R
6 | B6 | 0.687 enrichment R
7 | B7 | 2.9 enrichment R
8 | B8 | 1.41 enrichment R
9 | B9 | 1.34 enrichment R
10 | B10 | 1.28 enrichment R
11 | B11 | 0.854 enrichment R
12 | B12 | 0.811 enrichment R
13 | B13 | 1.07 enrichment R
14 | B14 | 0.654 enrichment R

Source: PMC12136788
